Data published in PubChem BioAssay AID588855 (National Center for Advancing Translational Sciences (NCATS), 2011).
About 5,000 (1.2%) of roughly 410,000 compounds were called active. This list was built around the results that the source calls inconclusive (neither active nor inactive); the mix of calls is not that of the screen. Calls come from the whole dose curve; as a rule, active = well fitted inhibition curve with a large enough effect; inconclusive = small, poorly fitted or top-dose-only effect; inactive = no such curve, though single readings can be large or run the other way. Potencies of inconclusive entries are doubtful fits and often do not repeat.
% is set by controls: 0 for no effect and ±100 for the full control effect; potency is the fitted concentration of half-maximal effect; tags give direction and shape of the fitted curve.

Assay: qHTS for Inhibitors of TGF-b; note: nearly all actives have a fitted effect of over 65% in size
Details: HepG2 CAGA-GFP TGF-b/SMAD3 reporter, GFP fluorescence, 18 h, TGF-beta stimulated, 500 pg/mL final; series mostly up to 46.1 µM; activity, negative = inhibition: at the top concentration
How it was run: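 HEPG2 CAGA-GFP, 1000 cells/well; 2 h settle, 37 C; cpd via pin tool; TGF-b 500 pg/mL final; 18 h, 37 C; GFP imaging ex488/em500-530; %Activity normalised to -TGF-b and +DMSO controls; CRC fit, curve class.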
In the case of `CCOC(=O)c1ccc(NC(=O)c2ccc3c(c2)C(=O)N(CC2CCCO2)C3=O)cc1` (stereo not given), the “activity, negative = inhibition” value is reported as inactive: -19.9%. In the case of `Cc1c(NC(=O)C(C#N)=C2CCCCC2)c(=O)n(-c2ccccc2)n1C`, the Potency is reported as inconclusive: 35.5 µM [inhibitor, single point]. In the case of `Cc1ccc(NC(=S)Nc2cccc3cnccc23)cc1C`, the Potency is reported as inconclusive: 35.5 µM [inhibitor, single point]. In the case of `COc1ccccc1Cc1c(-c2cccc(Cl)c2)nc2ccc(Cl)cn12`, the Potency is reported as inconclusive: 11.2 µM [inhibitor, single point]. In the case of `NCCCCCc1nnc(SCc2ccc(Cl)c(Cl)c2)o1`, the “activity, negative = inhibition” value is reported as inactive: -12.8%. In the case of `CC(=O)Oc1ccc(C)cc1-n1nc2ccccc2n1`, the Potency is reported as inconclusive: 20 µM [inhibitor, partial curve, poor fit]. In the case of `Cc1c(C=O)c2ccccn2c1C(=O)c1ccc(Cl)c([N+](=O)[O-])c1`, the “activity, negative = inhibition” value is reported as inactive: 0%. In the case of `CS(=O)(=O)N1N=C(c2cccs2)CC1c1ccccc1` (stereo not given), the Potency is reported as inconclusive: 35.5 µM [inhibitor, single point]. In the case of `O=C(Nc1ccc(F)c(Cl)c1)c1cc(S(=O)(=O)N2CCc3ccccc3C2)ccc1F`, the Potency is reported as inconclusive: 3.16 µM [inhibitor, partial curve, poor fit]. For `COc1ccc(-c2noc(CCCC(=O)N3CCN(c4cc(C)ccc4C)CC3)n2)cc1`, the Potency was inconclusive: 11.2 µM [inhibitor, partial curve]. For `CCC(=O)C1CCCN(C(=O)c2ccc3nc(-c4cccc(OC)c4)oc3c2)C1` (stereo not given), the “activity, negative = inhibition” value was inactive: -13.7%. In the case of `Cn1c2ccccc2c(=O)c2cc(NCCCN3CCOCC3)ccc21`, the Potency is reported as inconclusive: 8.91 µM [inhibitor, partial curve, poor fit]. For `COc1ccc(N2CCN(C(=O)CN3C(=O)CSc4c3c(C)nn4-c3ccccc3)CC2)cc1`, the “activity, negative = inhibition” value was inactive: -0.349%. For `CCNc1nc(C#N)nc(Nc2ccccc2)n1`, the “activity, negative = inhibition” value was inactive: -6.92%. For `Cc1[nH]n(-c2ccccc2)c(=S)c1C=Nc1cccc([N+](=O)[O-])c1`, the Potency was inconclusive: 35.5 µM [inhibitor, single point]. For `N#CCCOC1(C#CCN2CCCC2)CCCCC1`, the “activity, negative = inhibition” value was inactive: -10.1%. For `C[C@H](NC(=O)c1nc[nH]c1C(=O)N[C@@H](Cc1ccccc1)C(=O)OC(C)(C)C)C(=O)OCc1ccccc1`, the Potency was inconclusive: 35.5 µM [inhibitor, single point]. With `O=C(COc1ccccc1)NC(=S)Nc1ccc2c(c1)Cc1ccccc1-2` the Potency was inconclusive: 7.94 µM [inhibitor, partial curve, poor fit]. In the case of `CC(C(=O)NCc1ccco1)n1ccc2cc(S(=O)(=O)N3CCCC3)ccc21` (stereo not given), the Potency is reported as inconclusive: 17.8 µM [inhibitor, partial curve, poor fit]. With `Cc1[nH]n(-c2ncc(-c3ccccc3)s2)c(=O)c1C(c1ccc(Cl)cc1)C(C#N)C#N` (stereo not given) the Potency was inconclusive: 35.5 µM [inhibitor, single point]. With `CCOC(=O)C1(C)CCCCCN1C(=O)c1ccc(C(=O)OC)cc1` (stereo not given) the “activity, negative = inhibition” value was inactive: 10.2%. For `CC(C)C[C@H](NC(=O)c1nc[nH]c1C(=O)NCCCCCNC(=O)OC(C)(C)C)C(=O)OC(C)(C)C`, the Potency was inconclusive: 35.5 µM [inhibitor, single point]. For `Cc1ccnc(NC(=O)C2CC(=O)N(c3ccc4c(c3)OCCO4)C2)c1` (stereo not given), the “activity, negative = inhibition” value was inactive: -18.7%. For `CC1CCCCN1CCNC(=O)Cn1nc(-c2ccccc2)ccc1=O` (stereo not given), the “activity, negative = inhibition” value was inactive: -0.927%. In the case of `CC1CCN(S(=O)(=O)c2ccc3c(c2)C(=NO)c2cc(S(=O)(=O)N4CCC(C)CC4)ccc2-3)CC1`, the Potency is reported as active: 8.91 µM. In the case of `COc1ccc(C(=O)Nc2cc(C(C)C)c(O)c(S(=O)(=O)c3ccc(Cl)cc3)c2C)cc1`, the Potency is reported as inconclusive: 6.31 µM [inhibitor, single point]. In the case of `COc1ccc(C(=O)O/N=C(\N)Cc2ccc(Cl)cc2Cl)cc1OC`, the Potency is reported as inconclusive: 14.1 µM [inhibitor, single point]. For `Cc1[nH][nH]c(=O)c1C(c1ccc(-c2ccc(Cl)c(Cl)c2)o1)c1c(C)[nH][nH]c1=O`, the Potency was inconclusive: 35.5 µM [inhibitor, single point]. With `Cc1ccc2c(c1)nnn2C1CCN(CC(=O)Nc2ccccc2N2CCOCC2)CC1` the Potency was active: 10 µM. For `CSc1nc2ccc3nc(NC(=O)c4ccc(Cl)s4)sc3c2s1`, the Potency was inconclusive: 2.24 µM [inhibitor, single point]. In the case of `O=C(OCC(=O)N1CCCCC1)c1c[nH]c2ccccc12`, the Potency is reported as inconclusive: 0.501 µM [inhibitor, full curve, poor fit]. With `NC(=O)CSc1nnc(-c2cccc(S(=O)(=O)N3CCCCC3)c2)o1` the “activity, negative = inhibition” value was inactive: -20.6%. In the case of `O=Nc1ccc(NO)c2ccccc12`, the Potency is reported as active: 12.6 µM. With `CCN(Cc1ccccc1)Cc1c(O)ccc2c(=O)c(-c3ccccc3)c(C(F)(F)F)oc12` the Potency was inconclusive: 35.5 µM [inhibitor, single point]. For `Cc1cccc(-n2nnnc2SCC(=O)c2cc(C)n(Cc3ccco3)c2C)c1`, the Potency was inconclusive: 35.5 µM [inhibitor, single point]. In the case of `Cc1ccc(OCC(=O)OCc2cc(=O)n3nc(C4CCCCC4)sc3n2)cc1C`, the Potency is reported as inconclusive: 35.5 µM [inhibitor, single point]. With `O=C(c1[nH]c2ccccc2c1Sc1ccc(Cl)cc1)N1CCCCC1` the Potency was inconclusive: 35.5 µM [inhibitor, partial curve, poor fit]. With `Cc1ccc(C(OCCN(C)C)c2cccc(C(F)(F)F)c2)cc1` (stereo not given) the Potency was inconclusive: 31.6 µM [inhibitor, single point]. With `CCC1CN(C(=O)N2CCC(C(=O)NCCc3ccccc3C)CC2)c2ccccc2O1` (stereo not given) the Potency was inconclusive: 3.16 µM [inhibitor, full curve, poor fit]. In the case of `O=C(Nc1cccc(F)c1)c1cc(S(=O)(=O)N2CCOCC2)ccc1N1CCCC1`, the Potency is reported as inconclusive: 35.5 µM [inhibitor, single point]. With `CNC(=O)c1ccsc1NC(=O)c1ccc2c(c1)CCCC2` the Potency was inconclusive: 35.5 µM [inhibitor, single point]. For `CCCCN(CCCNC(=O)c1ccc2nc(N3CCOCC3)sc2c1)Cc1ccccc1`, the “activity, negative = inhibition” value was inactive: 32.2%. For `CNCCCOc1ccc(Cl)cc1C(C)(C)C`, the Potency was inconclusive: 25.1 µM [inhibitor, single point]. In the case of `CCc1cccc(NC(=O)CCCCCC2NC(=O)NC2C)c1` (stereo not given), the “activity, negative = inhibition” value is reported as inactive: -6.28%. For `CN(CCc1ccccc1)C(=O)c1cccc(NC(=O)Cc2cccc(NC(=O)C3CCCN(C(=O)CCc4ccccc4)C3)c2)c1` (stereo not given), the Potency was inconclusive: 8.91 µM [inhibitor, partial curve, poor fit]. In the case of `Cc1ccc(-c2nc3scc(CCNS(=O)(=O)c4ccc(F)c(C)c4)n3n2)cc1`, the Potency is reported as inconclusive: 7.08 µM [inhibitor, full curve, poor fit]. With `CCOc1cccc(CC(=O)N2CCc3c([nH]c4ccccc34)C2c2ccccc2)c1OCC` (stereo not given) the Potency was inconclusive: 35.5 µM [inhibitor, single point]. With `CC(C)(C)C(=O)N(CCN(C(=O)C(C)(C)C)c1ccccc1)c1ccccc1` the Potency was inconclusive: 3.16 µM [inhibitor, partial curve, poor fit]. For `C[N+](C)(CCCCCI)c1ccc(/C=C/c2nc3ccccc3s2)cc1`, the Potency was active: 8.91 µM. For `CN(CC(=O)Nc1nc2ccccc2s1)S(=O)(=O)c1ccc(Br)cc1`, the Potency was inconclusive: 17.8 µM [inhibitor, partial curve, poor fit]. For `CCC(CC)NC(=O)/C=C/c1ccccc1Cl`, the Potency was inconclusive: 20 µM [inhibitor, partial curve, poor fit]. With `CCN(CC)c1ccc(CN(C(=O)Cc2coc3ccc(C)cc23)C2CCS(=O)(=O)C2)cc1` (stereo not given) the Potency was inconclusive: 35.5 µM [inhibitor, single point]. For `Cc1cc(Cl)ccc1NNC(=O)c1snnc1C`, the Potency was inconclusive: 35.5 µM [inhibitor, partial curve, poor fit]. With `CC(C)(C)NC(=O)CSc1nc2ccc(NC(=O)CSc3nnnn3Cc3ccccc3)cc2s1` the Potency was inconclusive: 17.8 µM [inhibitor, single point]. In the case of `CCOC(=O)C1=C(COC(=O)/C=C/c2ccc(SC)cc2)NC(=O)NC1C` (stereo not given), the “activity, negative = inhibition” value is reported as inactive: -3.76%. With `Cc1cc(=O)c2c(o1)C(=O)c1occc1C2=O` the Potency was inconclusive: 35.5 µM [inhibitor, single point]. In the case of `CCc1nc2c(OCC(=O)c3ccc(Cl)cc3Cl)cccn2c1N(C)C(=O)COc1ccccc1`, the Potency is reported as inconclusive: 22.4 µM [inhibitor, single point]. In the case of `O=C(CC1SC(=Nc2ccccc2)N(CCc2c[nH]c3ccccc23)C1=O)Nc1ccccc1F` (stereo not given), the Potency is reported as inconclusive: 35.5 µM [inhibitor, single point]. With `COc1ccccc1CN1CCN(C(=O)c2cccc3ccccc23)CC1` the “activity, negative = inhibition” value was inactive: -24.5%. For `CCN(C(=O)c1cc2c(=O)oc3ccc(C)cc3c2s1)c1cc(OC)ccc1OC`, the Potency was inconclusive: 35.5 µM [inhibitor, single point]. For `Cc1ccc(-c2noc(CSc3nnc(-c4ccncc4)n3-c3ccc(F)cc3)n2)cc1`, the “activity, negative = inhibition” value was inactive: 5.83%. For `C=CCNC(=S)N/N=C/c1ccc(C)cc1C`, the Potency was inconclusive: 35.5 µM [inhibitor, single point]. For `O=C(CCN1C(=O)S/C(=C\c2ccccc2)C1=O)Nc1ccc(S(=O)(=O)Nc2nccs2)cc1`, the Potency was inconclusive: 35.5 µM [inhibitor, single point]. For `C=CCC[C@@H](Cc1ccc(F)cc1)C(=O)OC[C@@H](NC(=O)[C@@H](CC=C)CC(=O)N[C@H](CO)Cc1ccccc1)C(C)(C)C`, the Potency was inconclusive: 35.5 µM [inhibitor, single point]. In the case of `COc1cc(C(=S)N2CCN(c3ccccc3Cl)CC2)cc(O)c1O`, the Potency is reported as inconclusive: 35.5 µM [inhibitor, single point].
